Data taken from PMC12136788.
Some of the results follow.

T1: UNK ZnF1-3 (human, UniProt Q9C0B0 31-174)
T1 sequence: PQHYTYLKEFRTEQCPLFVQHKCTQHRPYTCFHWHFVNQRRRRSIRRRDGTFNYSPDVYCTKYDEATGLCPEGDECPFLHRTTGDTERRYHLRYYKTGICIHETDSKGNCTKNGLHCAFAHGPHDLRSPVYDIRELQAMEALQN

B1: chr17:65740002:65740003:+_ENSG00000130935_ENST00000581375|hu_hu|hu_hu_hu_mus_False|28_88 (ssRNA)
RNA: GGGAGUUCUACAGUCCGACGAUCAACAAAUCUUUCUUCCCUGGACGCAAGAGUUCAUUCAUAUUAAAAAAAAUAUAUAUCCAUCAAGUUAGGUGUGGUGGCCACACAGAGCUCCAGAGCACUUUGGGAGGUGGAUCUCUGAGUCAACAGAGGAUUGAGCAUCA
B2: 76083062_76087528_4468_CDS_ENSG00000078687_ENST00000588847|human|control|control (ssRNA)
RNA: GGGAGUUCUACAGUCCGACGAUCCAGUCCAGCGAGAGGGUAAGGAGCAAAGGUGUUGGGUGAAGACUGCUGCUCUUUGGUCUGCAGGUCAGGUAGGCCGGGAGUCUGUGGGUGCGAGGGGAAGCUGUCCAUGGCCGAUUUGCCCAACAGAGGAUUGAGCAUCA
B3: 115421839_115421959_1997_CDS_ENSG00000165185_ENST00000337530|human|control|control (ssRNA)
RNA: GGGAGUUCUACAGUCCGACGAUCUUUGAGCAGCUCGAUGUCACCAUACAUCAGAUCCGCAUGCUCCUGCAGCGUCCGCAUGUUCAGGUACUGGCUGUUGUACUUGACCACAGUGGACAGGAGAGUGAUAGGGCUGUCAUCCCCCAACAGAGGAUUGAGCAUCA
B4: chr13:100193624:100193625:-_ENSMUSG00000052727_ENSMUST00000064762|mus_hu|FALSE|FALSE (ssRNA)
RNA: GGGAGUUCUACAGUCCGACGAUCUAAACCCUCAUCAUAGUUAGCAGUGCAAAACAUAGACUUAUCAGACAAAAAUCAACUAAAAUGUUAAUUUUGAAAUAAAUAACUAACAUAGAAAAUAAAAUGAGGUCAUUGUUCUCUACUCAACAGAGGAUUGAGCAUCA
B5: chr8:48265483:48265484:-_ENSMUSG00000038143_ENSMUST00000079195|mus_mus|FALSE|FALSE (ssRNA)
RNA: GGGAGUUCUACAGUCCGACGAUCAUAUCUUAAAAAGUAACACAAUCCAAAAUGGAUAUUUCACACAACACUACAUAUACAACAUGAACACAAUAUUACCAUAUGGAGGGACUUUCAAAUAUAGACUUACAAAAAUCCCUGUCCCAACAGAGGAUUGAGCAUCA
B6: 63412843_63413052_7627_CDS_ENSMUSG00000030451_ENSMUST00000076226|mouse|control|control (ssRNA)
RNA: GGGAGUUCUACAGUCCGACGAUCGUGGUCUAGCAGCCACCCAACCAAGGCUUCCACACCAGGCAAACCAGAUGCAUUCCCAGAGGUGCCGGUGAGCGACUUCAGAGCAAACUCUAUAUUUUUCCUUGGAAAUCCCAUUUCCAUCAACAGAGGAUUGAGCAUCA
B7: chr18:34659469:34659470:-_ENSMUSG00000036501_ENSMUST00000040506|mus_hu|FALSE|FALSE (ssRNA)
RNA: GGGAGUUCUACAGUCCGACGAUCGUCAUUUAUGGCUGUUUGAGAUUAUGGCAGAAGAUCAGCCUGUAGUUCCUCAUUGAAGAAAUGCAGAACUCGAUCAGUACUUCAGCAGUUAAUCGUUGGAACCGCGAUGCCCCGUUCCCUCAACAGAGGAUUGAGCAUCA
B8: chrX:112058718:112058719:-_ENSG00000126016_ENST00000371959|hu_mus|FALSE|FALSE (ssRNA)
RNA: GGGAGUUCUACAGUCCGACGAUCCAACCAUCUGCUGAGCUCUAGAGACCAUAGCAAAAGGGUCAGCUGGCAUGGGCUGAUAAGAAGCAGACUGCUGAGCCCGAGGCAUAGCUGAGUAGGCUUCUCCUGGCUGCUGCUGCGCUGCAACAGAGGAUUGAGCAUCA
B9: chr19:16212804:16212805:+_ENSG00000167460_ENST00000300933|hu_mus|hu_hu_hu_mus_False|68_78 (ssRNA)
RNA: GGGAGUUCUACAGUCCGACGAUCAACAAUUCUGGAGUGAAGGAAAGAUGUAACAUGCAAUUAAUUACCAUCUAUUACAGAAGGCACAUGGGCAACAAUGAUCACCCCAGCAUUCUCGCUUGGAAUGCUUAAAGACAAUCUGUUCAACAGAGGAUUGAGCAUCA
B10: chr13:36245089:36245090:+_ENSG00000172915_ENST00000537702|perfect_dup|FALSE|FALSE (ssRNA)
RNA: GGGAGUUCUACAGUCCGACGAUCUUCUGCUGCUUCUCUUCAGUACCUGUUCUGAUGCUCAUAAUGCCACCGAUUAAAAUCUAUAUUAAAAGCUACAAUGCUGCCGGAAGCCAUGCCAGUGAUCAGAGUCCUUUGGUCAUGGGACAACAGAGGAUUGAGCAUCA
B11: 31041438_31041558_596_CDS_ENSG00000197183_ENST00000359676|human|control|control (ssRNA)
RNA: GGGAGUUCUACAGUCCGACGAUCCUCAUGGUCAUCGUGGUCAUCGUCGUCAUCAUCUGCCGUCGGGGCCCGGCCCACUGUCAGGUCCUCAGGGCAGCCGCUGACCUCGGUCUUGAUGGAAUCGUAGCUCCCAGAGCUGUAGGGCAACAGAGGAUUGAGCAUCA
B12: 66626529_66627192_1617_CDS_ENSG00000173621_ENST00000309602|human|control|control (ssRNA)
RNA: GGGAGUUCUACAGUCCGACGAUCUGACAAGGCCAGCAGGCAGAGGUCAUAGUCAGCGCCGGGGACGAGGUGCUUCAGCAGGAAGUGGUGGCUGGAGGCUGGGACAAUCCGGUAGAUGAGGGUCUCAUCUUCGCUGCUGUUGUACAACAGAGGAUUGAGCAUCA
B13: chr5:138994509:138994510:+_ENSG00000131508_ENST00000398734|hu_mus|FALSE|FALSE (ssRNA)
RNA: GGGAGUUCUACAGUCCGACGAUCGAUGGACAAAAGUACUUUUGAAAUAGUUAGUGCUGGAGACCACUGUGACCGUAGAAUAUCAAGACAAAUGCUGCCAUUACUGUUAAUAUUUGGGUGAUAAAUUCUUGUUGUAAAUGCAACCAACAGAGGAUUGAGCAUCA
B14: chr1:185278638:185278639:-_ENSG00000116679_ENST00000392007|hu_hu|FALSE|FALSE (ssRNA)
RNA: GGGAGUUCUACAGUCCGACGAUCUAAAAUUUUCAUCCUCAAACAUCAAAUAUCCAUUGGGAAUCAUUUUUCCUUAUAAAUUUGGCUACUCUGUUGGUGGCAAAUGUAUUUCUGGGAACUCUUAAGUAAUCCAAGGACAAAGGACAACAGAGGAUUGAGCAUCA

Each binder was assayed against T1, UNK ZnF1-3 (assay: nsRBNS (natural sequence RNA bind-n-seq); RBNS binding buffer (assumed for nsRBNS): 25 mM Tris pH 7.5, 150 mM KCl, 3 mM MgCl2, 0.01% Triton X-100, 500 ug/ml BSA, 20 U/ml SUPERase-In, 4 C; UNK is unkempt and MSI1 is Musashi-1; names of the RNAs are library labels; protein concentration not given here; high values mean tight binding).

Q: Which binding signal does the source give for B1 here?
A: 1.43 enrichment R

Q: With B2 as the binder, how does the binding signal read?
A: 2.03 enrichment R

Q: How did the binding signal turn out when B3 was run?
A: 1.01 enrichment R

Q: B4 was tested. Which binding signal did it give?
A: 1.8 enrichment R

Q: With B5 as the binder, how does the binding signal read?
A: 0.866 enrichment R

Q: For B6, which binding signal is on record?
A: 1.31 enrichment R

Q: B7 was tested. Which binding signal did it give?
A: 0.674 enrichment R

Q: With B8 as the binder, how does the binding signal read?
A: 0.976 enrichment R

Q: How did the binding signal turn out when B9 was run?
A: 0.918 enrichment R

Q: B10 was tested. Which binding signal did it give?
A: 1.28 enrichment R

Q: With B11 as the binder, how does the binding signal read?
A: 0.479 enrichment R

Q: With B12 as the binder, how does the binding signal read?
A: 1.67 enrichment R

Q: Which binding signal does the source give for B13 here?
A: 1.11 enrichment R

Q: B14 was tested. Which binding signal did it give?
A: 0.777 enrichment R
